Experimental data: PubChem BioAssay AID1745853 (National Center for Advancing Translational Sciences (NCATS), 2022)
The list shows a part of the results. The main result of the screen is listed elsewhere. These columns were measured beside it and carry no call.

Tests used:
Assay in all cases: Primary Screen for Target Class Profiling of Small Molecule Inhibitors of Methyltransferases
[1] = biological target: Glycine N-methyltransferase (Homo sapiens) (UniProt Q14749); details: purified enzyme, MTase-Glo SAH luminescence; measured here: GNMT inhibition; at 40 µM; stronger effect = lower value
How it was run: (§1)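 Each enzyme was assayed with SAM and its substrate. SAH formation detected by MTase-Glo luminescence; single-point 40 uM screen[…].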

[2] = biological target: Guanidinoacetate N-methyltransferase (Homo sapiens) (UniProt Q14353); details: purified enzyme, MTase-Glo SAH luminescence; measured here: GAMT inhibition; at 40 µM; stronger effect = lower value
How it was run: as §1

[3] = biological target: Histamine N-methyltransferase (Homo sapiens) (UniProt P50135); details: purified enzyme, MTase-Glo SAH luminescence; measured here: HNMT inhibition; at 40 µM; stronger effect = lower value
How it was run: as §1

[4] = biological target: Nicotinamide N-methyltransferase (Homo sapiens) (UniProt P40261); details: purified enzyme, MTase-Glo SAH luminescence; measured here: NNMT inhibition; at 40 µM; stronger effect = lower value
How it was run: as §1

[5] = biological target: Phenylethanolamine N-methyltransferase (Homo sapiens) (UniProt P11086); details: purified enzyme, MTase-Glo SAH luminescence; measured here: PNMT inhibition; at 40 µM; stronger effect = lower value
How it was run: as §1
% is scaled to controls: 0 for no effect and ±100 for the full control effect.

SMILES	activity change, negative = inhibition [1] [%]	activity change, negative = inhibition [2] [%]	activity change, negative = inhibition [3] [%]	activity change, negative = inhibition [4] [%]	activity change, negative = inhibition [5] [%]
CCOc1cc(C(C)(C)C)ccc1C1=N[C@@](C)(c2ccc(Cl)cc2)[C@@](C)(c2ccc(Cl)cc2)N1C(=O)N1CCN(CC(=O)N2CCOCC2)CC1	-4.22	-8.35	8.3	-32.3	2.3
CC(C)CCn1c(=O)c2ccc(C(=O)NCC(C)C)cc2n2c(=O)n(CC(=O)NC(C)(C)C)nc12	-4.82	-0.642	-0.215	-10.3	-1.57
O=C1NC2(CCN([S+](=O)([O-])c3cccc(C(F)(F)F)c3)C2)COc2ccccc21 (stereo not given)	-1.46	0.798	-0.663	-4.99	-4.84
O=C(CCCn1nc(-c2ccccc2)c2ccccc21)N1CCN(c2ccc(F)cc2)CC1	-1.84	-2.47	5.16	5.42	-2.41
COCC1CN(C2CCC2)CC12CCN(C(=O)c1ccsc1)CC2 (stereo not given)	-4.31	-5.52	-3.16	-9.49	-6.98
COc1ccc(-c2[nH]nc3ncc(C(=O)N4CCC(c5ccccc5)CC4)nc23)c(C)c1	-45.5	-38.9	-55.3	-37	-41.1
O=C(NCc1ccc(Cl)nc1)c1cc2cccnn2n1	-8.51	-9.22	-4.85	-17	-14
CC1CCC(NC(=O)CCc2nnc3n(Cc4ccc(Cl)cc4)c(=O)c4ccccc4n23)CC1 (stereo not given)	-6.7	0	3.03	-3.7	-1.77
CCCN1C(=O)c2c(C(=O)Nc3cc(F)ccc3F)ncn2CC1(C)C(=O)NCc1ccc(C)cc1 (stereo not given)	-0.545	0	3.06	3.08	6.28
COCc1nc(NCCc2nc(-c3ccccn3)no2)c2cnn(C)c2n1	-4.49	-6.74	-2.4	-27.4	-6.99
CC1(C(=O)NC2CCCCCCC2)Cn2c(ccc2-c2ccco2)C(=O)N1Cc1ccco1 (stereo not given)	-15	-1.69	-0.738	-9	-3.21
COc1cccc(-c2ccc(C(=O)N3CCC(NC(=O)c4ccc(C(F)(F)F)cc4)CC3)cc2)c1	-2.79	2.73	2.02	0.674	18.1
CC1(C(=O)NC2CCCCCC2)Cc2ccccc2C(=O)N1C1CCCCC1 (stereo not given)	-6.65	-0.491	-1.11	2.24	-4.77
CN(CCCN1C(=O)c2ccc(-c3ccco3)n2CC1(C)C(=O)NC1CCCC1)Cc1ccccc1 (stereo not given)	-0.311	0.054	0.311	6.77	0.421
CCOc1ccccc1CN1C(=O)c2cc3sc(CC)cc3n2CC1(C)C(=O)NC1CCCCC1 (stereo not given)	2.12	5.9	7.9	1.02	0.955
COc1ccc(NC(=O)N2C[C@@H]3C[C@H](C2)c2c(NC(=O)C4CCCCC4)ccc(=O)n2C3)cc1	-2.05	-2.94	0.056	-3.02	4.1
CC1(C)S[C@@H]2[C@H](NC(=O)[C@H](NC(=O)N3CCN(S(C)(=O)=O)C3=O)c3ccccc3)C(=O)N2[C@H]1C(=O)O	-4.26	-2.04	6.36	-17	-0.891
Cn1c(=O)cc(N2CCC[C@@H](N)C2)n(Cc2ccccc2C#N)c1=O		3.66		-13.4	4.88
CCOc1ccc(-c2nc(-c3cccc4c3CCC4NCCO)no2)cc1OCC (stereo not given)	5.16	10.9	8.59	-3.27	2.95
O=C(N[C@@H]1CN(Cc2ccccc2)C[C@H]1CO)c1cn[nH]c1	-6.49	-3.17	-0.549	-4.39	-0.423

SMILES	activity change, negative = inhibition [1] [%]	activity change, negative = inhibition [2] [%]	activity change, negative = inhibition [3] [%]	activity change, negative = inhibition [4] [%]	activity change, negative = inhibition [5] [%]
O=C(CCc1nnc2n(Cc3ccccc3)c(=O)c3ccccc3n12)N1CCN(c2ccc(F)cc2)CC1	-19.3	2.42	-3.63	-11.5	-4.55
C[C@@H]1CC[C@]2(C(=O)O[C@@H]3O[C@H](CO[C@@H]4O[C@H](CO)[C@@H](O[C@@H]5O[C@@H](C)[C@H](O)[C@@H](O)[C@H]5O)[C@H](O)[C@H]4O)[C@@H](O)[C@H](O)[C@H]3O)CC[C@]3(C)C(=CCC4[C@@]5(C)C[C@@H](O)[C@H](O)[C@@](C)(CO)C5CC[C@]43C)C2[C@H]1C (stereo not given in full)	0.362		7.92		
COc1cccc(N2C(=O)c3cc(-c4ccccc4)nn3CC2(C)C(=O)NCc2ccccc2)c1 (stereo not given)	1.36	1.08	3.98	5.33	-0.654
NC1CCCCN(c2c(F)cc3c(=O)c(C(=O)O)cn(C4CC4)c3c2Cl)C1 (stereo not given)	-0.75	3.95	-14.9	-9.93	2.27
Cc1noc(C)c1CC(=O)N1CCCn2cc(-c3ccccc3F)nc21	-3.36	-3.75	-2.29	-11.4	1.05
COc1ccc(CN2C(=O)c3cc4ccccc4n3CC2(C)C(=O)NC2CCCC2)cc1OC (stereo not given)	2.68	4.1	2.7	-3.79	1.68
CCCC1c2cccn2CCN1C(=O)NCCCOC (stereo not given)	3.38	0.259	6.15	6.1	7.04
Cc1ccccc1CN1C(=O)c2nc3ccccc3n2CC1(C)C(=O)NC1CCC(C)CC1 (stereo not given)	-2.92	3.07	0.144	1.57	-5.19
CCOc1ccccc1NC(=O)N1Cc2c(sc3c2CCN(C)C3)-n2cccc2C1CC (stereo not given)	-6.66	1.85	-4.14	-10.3	-3.96
Cc1ccc(NC(=O)N2CCN(c3nnnn3-c3ccccc3)CC2)cc1	-4.86	-5.47	-2.03	-17.4	6.14
CCCOc1ccc(CN2C(=O)c3cc4occc4n3CC2(C)C(=O)NC2CCCC(C)C2C)cc1 (stereo not given)	1.38	0.049	7.29	0.756	0.533
COc1ccccc1-c1ccc(C(=O)N2CCC(C(=O)Nc3ccccc3Cl)CC2)cc1	-1.65	-1.59	0.109	-4.25	-0.296
CCN(Cc1cc(Nc2nc(C)cn3c(-c4cn[nH]c4)cnc23)sn1)C(C)(C)CO	-11.8	-18.8	-43.5	-17.4	-11.7
CC[C@H]1CN(C(=O)C(C)(C)C)CC[C@H]1CC(=O)NCc1cccnc1	-3.62	-7.36	0.869	-6.33	0.652
COc1cccc(CN2C(=O)c3ccc(-c4ccccc4)n3CC2(C)C(=O)NC2CCC(C)CC2)c1 (stereo not given)	0.024	4.87	0.148	-2.88	0.86
COCCCNCC1COc2ccccc2O1 (stereo not given)	2.6	7.48	12.4	-7.75	6.21
CNCCC(Oc1ccccc1OC)c1ccccc1 (stereo not given)	-5.68	8.63	5.91	-9.63	-0.661
OCC1(Cc2ccc(F)cc2F)CCCN(c2cnc3ccccc3n2)C1 (stereo not given)	-16.6	-4.75	-5.35	-15.4	-12.3
COc1ccc(F)c(CN2CCC3(CCC(=O)N(CCO)C3)CC2)c1	-1.97	-5.78	-1.89	-6.94	-4.08
CC(C)(O)/C=C/C1=CC(=O)[C@@](C)(O)C[C@H]1O	-1.09	-0.317	7.93	-14.7	-9.63

SMILES	activity change, negative = inhibition [1] [%]	activity change, negative = inhibition [2] [%]	activity change, negative = inhibition [3] [%]	activity change, negative = inhibition [4] [%]	activity change, negative = inhibition [5] [%]
CC(C)c1ccc(N2C(=O)c3ccccc3CC2(C)C(=O)NCc2ccccc2)cc1 (stereo not given)	2.57	0	-0.747	-3.57	-1.05
COc1ccc(CNC(=O)Cn2ccc3cc(S(=O)(=O)N4CCC(C)CC4)ccc32)c(OC)c1	0.357	2.95	-3.94	-18.4	-1.18
Cc1ccc(NC(=O)CSc2nnc3n(CCCOC(C)C)c(=O)c4ccccc4n23)cc1	-1.47	1.67	3.42	-1.12	-1.43
CCOc1ccccc1CNC(=O)C(C)n1ccc2cc(S(=O)(=O)N3CCCCC3)ccc21 (stereo not given)	-5.93	-0.301	-3.98	-13.7	-3.06
CC(C)CCNC(=O)C1(C)Cn2c(cc3ccccc32)C(=O)N1C1CCN(Cc2ccccc2)CC1 (stereo not given)	-3.8	0.439	-6.61	-7.96	-6.78
CC1(C(=O)NCc2ccccc2)Cn2c(ccc2-c2ccco2)C(=O)N1Cc1ccc2c(c1)OCO2 (stereo not given)	-4.85	0	1.82	-2.4	-0.781
Cc1nnc(CNC(=O)C2CCC(=O)N(CCN3CCOCC3)C2)o1 (stereo not given)	-1.35	-1.46	1.72	-1.02	-1.38
Cc1ccc(C)c(N2CCN(C(=O)c3cc4n(n3)CC(C)(C(=O)NCCC(C)C)N(C)C4=O)CC2)c1 (stereo not given)	10.2	0.494	8.94	4.97	8.59
COc1ccc(OC)c(NC(=O)N2Cc3c(sc4c3CCCC4)-n3cccc3C2c2ccc(F)cc2)c1 (stereo not given)	-1.98	2.96	0.815	-5.96	0.327
OC[C@@H]1CN(Cc2cccnc2)C[C@H]1c1ccccn1	-3.84	0.364	-1.38	-2.36	0.685
CC1CNCCN1S(=O)(=O)c1cccc2cnccc12 (stereo not given)	-11.9	4.63	3.67	-7.48	0.393
COc1ccc(-c2nc3c(c(=O)[nH]2)CCN(S(=O)(=O)C2CC2)C3)cc1	-2.16	-1.51	0.452	-3.02	-2.12
COc1ccc(CNC(=O)C2(C)Cn3cnc(C(=O)NCc4cccc(OC)c4)c3C(=O)N2C2CC2)cc1 (stereo not given)	1.33	0	7.73	4.67	7.86
O=C(Nc1ccc(N2CCC(NC3Cc4ccccc4C3)CC2)cc1)C1CCCC1	-7.05	-9.59	-5.29	-14.3	-9.92
CC1(C(=O)NCc2ccccc2Cl)Cn2cnc(C(=O)NCc3ccccc3)c2C(=O)N1C1CC1 (stereo not given)	3.62	2.45	13.6	7.27	9.76
CC1=CC2=C(C)C(=O)C(C)(O)C(O)C2CO1 (stereo not given)	0	-1.24	-1.33	-13.5	-1.94
Cc1ccc(CNC(=O)N(C)CC2CCOCC2)cc1	-1.38	-1.95	-0.152	-6.44	0.458
CC1(C(=O)NC2CCCCC2)Cn2c(c(-n3cccc3)c3ccccc32)C(=O)N1Cc1ccco1 (stereo not given)	-1.96	4.71	-7.08	-7.01	0.687
CN1C(=O)c2cc(C(=O)NCCCN3CCCC3)nn2CC1(C)C(=O)NCc1ccc(F)cc1 (stereo not given)	-2.24	-0.379	-11	-0.028	-3.84
